# From article PMC4336329 (PLoS ONE, 2015)
# About 2,200 (0.71%) of roughly 310,000 compounds showed an effect of 50% or more. Effects have a minus sign here. The list shows a part of the results.
# Molecular target: human ether-à-go-go-related gene (hERG) potassium channel (human, UniProt Q12809)
# Test: primary screen, population patch clamp on CHO cells stably expressing hERG
# Chain of human ether-à-go-go-related gene (hERG) potassium channel (Q12809 whole entry, looked up): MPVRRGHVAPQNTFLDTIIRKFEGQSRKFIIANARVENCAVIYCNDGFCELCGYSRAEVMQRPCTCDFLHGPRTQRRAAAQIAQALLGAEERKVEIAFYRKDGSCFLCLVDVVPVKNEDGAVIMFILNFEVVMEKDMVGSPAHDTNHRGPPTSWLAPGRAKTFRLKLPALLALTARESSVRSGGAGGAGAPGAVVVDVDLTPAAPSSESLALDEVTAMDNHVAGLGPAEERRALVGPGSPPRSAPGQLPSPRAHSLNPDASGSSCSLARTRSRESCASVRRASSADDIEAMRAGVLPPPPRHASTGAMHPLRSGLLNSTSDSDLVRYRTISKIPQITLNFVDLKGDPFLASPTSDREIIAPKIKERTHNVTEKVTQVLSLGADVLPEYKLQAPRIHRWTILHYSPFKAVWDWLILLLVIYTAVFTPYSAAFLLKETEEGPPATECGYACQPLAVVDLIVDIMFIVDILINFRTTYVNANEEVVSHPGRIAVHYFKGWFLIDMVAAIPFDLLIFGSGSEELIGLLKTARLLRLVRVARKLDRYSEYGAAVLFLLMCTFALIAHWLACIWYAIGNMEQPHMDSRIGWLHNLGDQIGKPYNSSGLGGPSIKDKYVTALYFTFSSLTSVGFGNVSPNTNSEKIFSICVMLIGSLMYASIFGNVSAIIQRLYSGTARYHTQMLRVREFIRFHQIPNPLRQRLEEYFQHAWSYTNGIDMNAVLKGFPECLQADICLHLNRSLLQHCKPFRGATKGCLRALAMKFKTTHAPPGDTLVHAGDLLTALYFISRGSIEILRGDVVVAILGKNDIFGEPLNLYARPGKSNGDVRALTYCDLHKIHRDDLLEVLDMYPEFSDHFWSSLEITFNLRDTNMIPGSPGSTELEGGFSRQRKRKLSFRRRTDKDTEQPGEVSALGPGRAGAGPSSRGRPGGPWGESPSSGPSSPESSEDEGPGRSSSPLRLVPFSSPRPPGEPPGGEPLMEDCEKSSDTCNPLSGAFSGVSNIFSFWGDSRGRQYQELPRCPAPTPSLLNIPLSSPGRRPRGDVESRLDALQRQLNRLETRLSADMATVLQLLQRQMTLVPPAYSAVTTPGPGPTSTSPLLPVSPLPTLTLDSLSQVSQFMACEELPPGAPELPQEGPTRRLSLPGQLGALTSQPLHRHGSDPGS
row,SMILES,"hERG current change (%, negative = inhibition) at 1uM [%]"
1,Cc1ccc(Cl)c(NC(=O)CCl)c1Cl,-8.83
2,Cc1ccc(/C=c2/sc3nnc(-c4ccccc4Cl)n3c2=O)o1,1.11
3,O=C(OCc1ccccn1)C1CCN(C(=O)c2ccc(Cl)cc2)CC1,0.419
4,N#Cc1ccc(/C=C/C(=O)O)cc1,18.4
5,CC1(C)CC(NC(=S)NC2CC2)CC(C)(C)N1,9.45
6,Cc1cc(C)n(-c2nc3ccccc3c(=O)n2OCC(=O)Nc2c(C)cccc2C)n1,10.7
7,COc1ccc(CSc2nc(N3CCOCC3)c3c(c2C#N)CC(C)(C)OC3)cc1,6.49
8,CCN1CCN(Cc2ccc(OC(F)(F)F)cc2)CC1,0.634
9,COc1ccc(CCNC(=O)COc2nncc3ccccc23)cc1,1.36
10,Cc1[nH]n(-c2ccccc2)c(=O)c1/C=C1\C=NN=C1c1ccccc1,11.3
11,O=c1c2ccccc2nc(/C=C/c2cccc([N+](=O)[O-])c2)n1CCCO,-14.9
12,COC(=O)C1=C(c2cc3ccccc3o2)C[C@@H]2CC[C@H]1N2C(=O)NCc1ccccc1,-8.24
13,CCOC(=O)c1cnn(-c2ccccc2)c1-n1cccc1,2.93
14,O=C(COC(=O)c1cc2ccccc2cc1O)Nc1cccnc1Cl,6.46
15,CCc1cc2c(=O)oc(-c3ccc(F)cc3)nc2s1,15.2
16,CCOC(=O)c1ccc(N2C(=O)c3n[nH]c(C)c3C2c2cccnc2)cc1 (stereo not drawn),-0.0034
17,O=C(NCc1ccco1)c1ccc(Cn2c(=S)[nH]c3ccccc3c2=O)cc1,11.6
18,O=C(NNC(=O)C(Cl)Cl)c1cnn(-c2ccccc2)c1C(F)(F)F,13.1
19,Brc1c(CSc2nc3ccccc3s2)nc2ncccn12,-46.1
20,O=C(CSC1=NNC(c2ccccn2)S1)Nc1ccccc1 (stereo not drawn),4.91
21,CCC(C)N(C(=O)c1csnn1)C(C(=O)NC(C)(C)C)c1ccccc1 (stereo not drawn),7.07
22,CC1(C)CN(C(Cc2ccccc2)C(N)=O)C1=O (stereo not drawn),14.8
23,Cc1c(C)c2c(OCC(=O)N3CCC(C(N)=O)CC3)cc3c(c2oc1=O)CCC(C)(C)O3,-0.869

row,SMILES,"hERG current change (%, negative = inhibition) at 1uM [%]"
1,Cc1ccc(OCC(=O)Nc2ccc(N3CCN(C(=O)c4ccco4)CC3)cc2)c(C)c1,10.5
2,O=C(COC(=O)CC1CC2CCC1C2)Nc1c(F)cccc1F (stereo not drawn),16.1
3,O=C(NC1CC2CCCC(C1)N2Cc1cccs1)N1CCOCC1 (stereo not drawn),3.19
4,Cn1c(N)c(S(=O)(=O)N2CCN(c3cccc(Cl)c3)CC2)c(=O)n(C)c1=O,13.4
5,CC1(C)CC(=O)C=C(N2CCCC2)C1,6.84
6,Cc1nc2ccccc2c(=O)n1/N=C/c1cn[nH]c1-c1ccccc1,7.97
7,CCCc1ccc(C#N)c(SC2CC(=O)N(c3ccc(OC)cc3)C2=O)n1 (stereo not drawn),12.9
8,COc1ccccc1NC(CC(=O)c1ccccc1)C(=O)OCC(=O)c1ccc(C)c(C)c1 (stereo not drawn),-6.19
9,O=C(Nc1ccc(N2CCN(C(=O)c3ccccc3)CC2)cc1)c1cc2ccccc2o1,1.57
10,COc1ccc2c(c1OC)C(C1c3c(cc4c(c3OC)OCO4)CCN1C)OC2=O (stereo not drawn),7.9
11,COc1cccc(/C=C2/Sc3ccc(C(=O)NCCN4CCCCCC4)cc3NC2=O)c1,-11.1
12,CCOC(=O)c1nc(Nc2ccc(OC)cc2)c2ccccc2n1,7.75
13,CC(=O)Nc1ccc(S(=O)(=O)Nc2nc3ccccc3nc2-n2ccc(=NC(=O)c3ccccc3)cc2)cc1,14.9
14,O=C(CSc1nnc(CNC(=O)c2ccco2)o1)Nc1ccccc1F,5.88
15,FC(F)(F)c1ccc(-n2cnc3ccccc32)nc1,4.89
16,COc1cc(S(=O)(=O)N2CCCCC2)ccc1NC(=O)c1ccncc1,-0.583
17,COc1cc(OC)cc(-c2nnc(SCC(=O)N3c4ccccc4Sc4ccccc43)o2)c1,16.1
18,CN(C)S(=O)(=O)c1ccc(C(=O)Nc2nc(-c3cc4ccccc4o3)cs2)cc1,11.7
19,Cc1cc(C(=O)N/N=C/c2ccco2)n[nH]1,11.9
20,COC(=O)c1c(C)noc1-c1cc(C)on1,13.8
21,CCOc1ccc(CCNC(=O)COC(=O)/C=C/c2ccc(C)o2)cc1OCC,6.47
22,CCC1Oc2ccc(C)cc2N(CC(=O)NCCCN2CCOCC2)C1=O (stereo not drawn),14.8
23,COc1ccccc1N1CCN(S(=O)(=O)c2ccc(-n3cnnn3)c(C)c2)CC1,10.9

row,SMILES,"hERG current change (%, negative = inhibition) at 1uM [%]"
1,CC(C)Cn1c(SCC(=O)N2CCCc3ccccc32)nc2ccccc2c1=O,5.92
2,COc1cc(/C=N/n2nnnc2N)ccc1OC(C)=O,13.2
3,Cc1ccc(OCC(=O)NC(=S)Nc2cccc(C)n2)cc1,9.88
4,COC(=O)/C=C/c1ccc(-n2ccnc2)cc1,0.824
5,CCCCCC(=O)NNC(=O)c1ccc(F)cc1,16.6
6,O=C(NC(=S)N1CCN(c2ccccc2)CC1)c1ccccc1,15.1
7,Cc1sc2ncnc(SCC(=O)c3ccc(O)cc3O)c2c1C,14.6
8,COCCCN1C(=O)C(O)=C(C(C)=O)C1c1cccc(F)c1 (stereo not drawn),14.7
9,Cc1ccccc1NC(=O)c1ccc(OCC(=O)Nc2ccccc2F)cc1,14.9
10,O=C(CN1CCN(S(=O)(=O)c2ccc(Br)cc2)CC1)N/N=C/c1ccco1,0.215
11,CC(C)(C)N1CC(COc2ccccc2)OC1=O (stereo not drawn),-1.44
12,COP(=O)(NS(=O)(=O)c1ccccc1)OC,14.3
13,CS(=O)(=O)c1ccc(Cl)c(C(=O)NC2CCSc3ccccc32)c1 (stereo not drawn),4.24
14,Cc1ccc(S(=O)(=O)N2CCOCC2)cc1C(=O)Nc1nc2ccccc2[nH]1,7.23
15,C=CCn1c(O)c(C(C)=NCCN2CCN(C(=S)NC)CC2)c(=O)[nH]c1=O,4.36
16,O=C(Cc1ccccc1)Nc1cccc(NC(=O)c2cccs2)c1,4.98
17,CCN1CCN(C(=S)Nc2ccc3nc(N4CCN(CC)CC4)cc(C)c3c2)CC1,2.12
18,COc1cccc(-c2nn(C)c3sc(C(=O)Nc4ccc5c(c4)OCCO5)cc23)c1,13.8
19,Clc1cccc(OCc2nnc(-c3ccccc3Br)o2)c1,9.74
20,O=C(COc1ccc2c3c(c(=O)oc2c1)CCCC3)NCc1ccccn1,11.8
21,O=C(COC(=O)C1COc2ccccc2O1)NC(=O)Nc1ccc2c(c1)OCCO2 (stereo not drawn),4.33
22,CCn1nc(C(=O)OCC(=O)Nc2ncc(Cl)c(C)c2Cl)c2ccccc2c1=O,8.93
23,COc1ccccc1N1CCN(CC(O)COc2ccc3c(C)cc(=O)oc3c2)CC1 (stereo not drawn),33.4

row,SMILES,"hERG current change (%, negative = inhibition) at 1uM [%]"
1,Cl.O=C(CNCc1cccs1)Nc1ccc(S(=O)(=O)N2CCCCC2)cc1,1.26
2,CN(C)/C=C1\N=C(c2ccc3c(c2)OCO3)OC1=O,19.3
3,CN1C(=O)N(C)C2(c3ccccc3)N(C)C(=O)NC12c1ccccc1 (stereo not drawn),-3.5
4,CC(C)(C)c1ccc(/C=C2/SC(N3CCCC3)=NC2=O)cc1,0.766
5,COc1ccc(NC2CCCN(C(=O)c3csc(C)n3)C2)cc1 (stereo not drawn),1.29
6,CCC(C)Cn1c(C)nc2ccccc21 (stereo not drawn),13.4
7,O=S(=O)(c1cccc2nonc12)N1CCN(c2ccccc2F)CC1,-5.98
8,Nc1ncc(Br)cc1N=Cc1ccccc1,11.4
9,NC(=O)CC(NC(=O)c1ccccc1)c1ccc(N2CCc3ccccc3C2)c([N+](=O)[O-])c1 (stereo not drawn),8.88
10,C=CCn1c(=O)c2c(nc3n2CC(C)CN3c2cccc(OC)c2)n(C)c1=O (stereo not drawn),5.24
11,CCOC(=O)C1CCN(C(=O)c2cc3cc4ccc(C)cc4nc3o2)CC1,13.5
12,CCOC(=O)CSC1=NC(=O)/C(=C/c2ccc(OC)cc2)S1,17
13,O=C(O)c1cnn(-c2ccccc2)c1-n1cccc1,13
14,O=C(O)CCCCCN1C(=O)C(O)=C(C(=O)/C=C/c2ccccc2)C1c1ccc2c(c1)OCO2 (stereo not drawn),8.57
15,COc1ccc(NC(=S)Nc2ccccc2)cc1,15.1
16,Nc1nc(SCC(=O)Nc2ccc(Cl)cc2)[nH]c(=O)c1-c1ccccc1,18
17,O=C(Nc1ccc2nc(-c3cccs3)[nH]c2c1)c1cccs1,7.18
18,O=C1CC(c2ccco2)CC(O)=C1C=Nc1cc(Cl)ccc1Cl (stereo not drawn),6.6
19,CC(C)Oc1ccc(C2CNC(=O)C2)cc1 (stereo not drawn),11.4
20,CCN(C(=O)COC(=O)c1nc(Cl)ccc1Cl)C1CCS(=O)(=O)C1 (stereo not drawn),9.86
21,COc1cc(C(=S)N(C)C)ccc1O,1.63
